# Laboratory results: the supplement of paper PMC12217912
# Some of the results follow. Sequences were assembled here from the parent chain. Inactive controls read about 0.05.
# B1: TEV protease; numbered along this chain (parent)
# chain: MGESLFKGPRDYNPISSSICHLTNESDGHTTSLYGIGFGPFIITNKHLFRRNNGTLVVQSLHGVFKVKDTTTLQQHLVDGRDMIIIRMPKDFPPFPQKLKFREPQREERICLVTTNFQTKSMSSMVSDTSCTFPSGDGIFWKHWIQTKDGQCGSPLVSTRDGFIVGIHSASNFTNTNNYFTSVPKNFMELLTNQEAQQWVSGWRLNADSVLWGGHKVFMVKPEEPFQPVKEATQL
# Variants of: B1
# Assay: raw area under fraction-flipped curve 0-4 h after induction (AUC4h, not background-subtracted), DNA-recorder readout of cleavage of the substrate (dimensionless); higher = more cleavage of the substrate by the protease variant
# Conditions: temperature: 34 °C; time window: 0-4 h after rhamnose induction
# Protocol: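 In vivo DNA recorder in E. coli TOP10(DE3) ΔrhaA at 34 °C. Each TEVp single-site mutant (parent TEVp 0) is paired with a single-site variant of the 7-mer TEVs (canonical ENLYFQ|S). The substrate sits between flexible linkers in a Bxb1-sfGFP-TEVs-SsrA fusion, so cleavage stabilises Bxb1 and speeds flipping of a recombination array, read by NGS. The value is the raw area under the fraction-flipped curve over 0-4 h after rhamnose induction (AUC4h), with ≥20 reads per time point. It is not background-subtracted; inactive controls average about 0.047.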
# 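Further: Bxb1 expression induced with 0.2% (w/v) L-rhamnose at OD600 near 0.5, cultures sampled hourly, flipped fraction per protease–substrate barcode pair counted by paired-end Illumina sequencing.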
Variant,area with substrate ENLYAQS,area with substrate ENLYDQS,area with substrate ENLYEQS,area with substrate ENLYHQS,area with substrate ENLYIQS,area with substrate ENLYKQS,area with substrate ENLYLQS,area with substrate ENLYMQS,area with substrate ENLYNQS,area with substrate ENLYPQS,area with substrate ENLYQQS,area with substrate ENLYSQS,area with substrate ENLYTQS,area with substrate ENLYVQS,area with substrate ENLYYQS,area with substrate ENLYCQS,area with substrate ENLYGQS,area with substrate ENLYRQS,area with substrate ENLYWQS
MGESLFKGPRDYNPISSSICHLTNESDGHTTSLYGIGFGPFIITNKHLFRRNNGGLVVQSLHGVFKVKDTTTLQQHLVDGRDMIIIRMPKDFPPFPQKLKFREPQREERICLVTTNFQTKSMSSMVSDTSCTFPSGDGIFWKHWIQTKDGQCGSPLVSTRDGFIVGIHSASNFTNTNNYFTSVPKNFMELLTNQEAQQWVSGWRLNADSVLWGGHKVFMVKPEEPFQPVKEATQL [T55G],0.0787,0.066,0.0415,0.0646,0.103,0.0559,0.0917,0.0752,0.061,0.0676,0.031,0.0685,0.0802,0.0899,0.0598,–,–,–,–
MGESLFKGPRDYNPISSSICHLTNESDGHTTSLYGIGFGPFIITNKHLFRRNNGTLVVQLLHGVFKVKDTTTLQQHLVDGRDMIIIRMPKDFPPFPQKLKFREPQREERICLVTTNFQTKSMSSMVSDTSCTFPSGDGIFWKHWIQTKDGQCGSPLVSTRDGFIVGIHSASNFTNTNNYFTSVPKNFMELLTNQEAQQWVSGWRLNADSVLWGGHKVFMVKPEEPFQPVKEATQL [S60L],0.0758,0.0068,0.0487,0.0693,0.112,0.0464,–,–,0.0496,0.0244,0.061,0.0758,0.0793,–,–,0.0823,0.064,0.0557,0.0855
MGESLFKGPRDYNPISSSICHLTNESDGHTTSLYGIGFGPFIITNKHLFRRNNGTDVVQSLHGVFKVKDTTTLQQHLVDGRDMIIIRMPKDFPPFPQKLKFREPQREERICLVTTNFQTKSMSSMVSDTSCTFPSGDGIFWKHWIQTKDGQCGSPLVSTRDGFIVGIHSASNFTNTNNYFTSVPKNFMELLTNQEAQQWVSGWRLNADSVLWGGHKVFMVKPEEPFQPVKEATQL [L56D],0.049,0.0491,0.0412,0.0374,0.0067,0.0301,0.0394,0.0714,0.0449,0.0454,–,–,0.0487,0.0553,–,0.0409,0.0458,0.0526,0.0424
MGESLFKGPRDYNPISSSICHLTNESDGHTTSLYGIGFGPFIITNKHLFRRNNGTLVVQSLHGVFKVKDTTDLQQHLVDGRDMIIIRMPKDFPPFPQKLKFREPQREERICLVTTNFQTKSMSSMVSDTSCTFPSGDGIFWKHWIQTKDGQCGSPLVSTRDGFIVGIHSASNFTNTNNYFTSVPKNFMELLTNQEAQQWVSGWRLNADSVLWGGHKVFMVKPEEPFQPVKEATQL [T72D],0.0713,–,0.0661,0.0645,0.117,0.0584,–,0.0722,0.058,0.0674,–,–,0.0726,0.088,–,–,–,–,0.0743
MGESLFKGPRDYNPISSSICHLTNESDGHTTSLYGIGFGPFIITNKHLFRRNNGTLVVQSLHGVFKVTDTTTLQQHLVDGRDMIIIRMPKDFPPFPQKLKFREPQREERICLVTTNFQTKSMSSMVSDTSCTFPSGDGIFWKHWIQTKDGQCGSPLVSTRDGFIVGIHSASNFTNTNNYFTSVPKNFMELLTNQEAQQWVSGWRLNADSVLWGGHKVFMVKPEEPFQPVKEATQL [K68T],0.0739,–,0.0452,0.0655,0.0682,0.0546,–,–,–,0.0692,0.054,0.0734,–,0.0735,0.0698,–,0.0655,0.0532,0.0717
MGESLFKGPRDYNPISSSICHLTNESDGHTTSLYGIGFGPFIITNKHLFRRNNGTLVVQSLHGVFKVKDSTTLQQHLVDGRDMIIIRMPKDFPPFPQKLKFREPQREERICLVTTNFQTKSMSSMVSDTSCTFPSGDGIFWKHWIQTKDGQCGSPLVSTRDGFIVGIHSASNFTNTNNYFTSVPKNFMELLTNQEAQQWVSGWRLNADSVLWGGHKVFMVKPEEPFQPVKEATQL [T70S],0.0698,0.0595,0.0667,0.062,0.0987,0.065,–,–,–,0.0705,0.074,0.067,0.0768,0.073,0.0808,0.0839,0.063,0.0752,–
MGESLFKGPRDYNPISSSICHLTNESDGHTTSLYGIGFGPFIITNKHLFRRNNGTLVVQSLFGVFKVKDTTTLQQHLVDGRDMIIIRMPKDFPPFPQKLKFREPQREERICLVTTNFQTKSMSSMVSDTSCTFPSGDGIFWKHWIQTKDGQCGSPLVSTRDGFIVGIHSASNFTNTNNYFTSVPKNFMELLTNQEAQQWVSGWRLNADSVLWGGHKVFMVKPEEPFQPVKEATQL [H62F],0.0792,–,0.0627,0.0697,0.144,0.0526,–,–,0.0725,0.0738,0.07,0.0843,–,0.042,–,–,–,0.0585,0.079
MGESLFKGPRDYNPISSSICHLTNESDGHTTSLYGIGFGPFIITNKHLFRRNNGTLVVQSLDGVFKVKDTTTLQQHLVDGRDMIIIRMPKDFPPFPQKLKFREPQREERICLVTTNFQTKSMSSMVSDTSCTFPSGDGIFWKHWIQTKDGQCGSPLVSTRDGFIVGIHSASNFTNTNNYFTSVPKNFMELLTNQEAQQWVSGWRLNADSVLWGGHKVFMVKPEEPFQPVKEATQL [H62D],0.0563,0.0592,0.0752,0.0585,0.104,0.0578,–,0.087,0.0682,0.0737,0.0571,0.0756,0.0821,0.104,0.0775,–,0.0607,–,0.0901
MGESLFKGPRDYNPISSSICHLTNESDGHTTSLYGIGFGPFIITNKHLFRRNNGTLVVQSLHYVFKVKDTTTLQQHLVDGRDMIIIRMPKDFPPFPQKLKFREPQREERICLVTTNFQTKSMSSMVSDTSCTFPSGDGIFWKHWIQTKDGQCGSPLVSTRDGFIVGIHSASNFTNTNNYFTSVPKNFMELLTNQEAQQWVSGWRLNADSVLWGGHKVFMVKPEEPFQPVKEATQL [G63Y],0.0665,0.0669,0.055,0.0713,0.101,0.0658,–,0.0711,–,0.068,–,–,0.0685,0.0825,–,0.0771,0.057,0.0321,–
